According to PubChem BioAssay AID2675 (National Center for Advancing Translational Sciences (NCATS), 2010):
The campaign covered roughly 280,000 compounds. About 100 (0.036%) were called active. This list was built around the results that the source calls inconclusive (neither active nor inactive); the mix of calls is not that of the screen. Calls come from the whole dose curve; as a rule, active = well fitted inhibition curve with a large enough effect in the signal ratio, with a control signal flat (not every such curve was filed as active); inconclusive = small, poorly fitted or top-dose-only effect, or effect the other way, or a change in a side signal; inactive = no such curve, though single readings can be large or run the other way; the % refers to the signal ratio. Potencies of inconclusive entries are doubtful fits and often do not repeat. A note “side channel” means that the fit belongs to a control or component signal, not to the main read-out.

target: Muscleblind-like protein 1 (Homo sapiens) (UniProt Q9NR56); experiment: qHTS Assay for Inhibitors of MBNL1-poly(CUG) RNA binding; settings: TR-FRET MBNL1-His/biotin-(CUG)12 binding, 665/545 ratio; activity change, negative = inhibition: at 57.5 µM (top of the series)
Sequence of UniProt Q9NR56 (Q9NR56 whole entry, looked up): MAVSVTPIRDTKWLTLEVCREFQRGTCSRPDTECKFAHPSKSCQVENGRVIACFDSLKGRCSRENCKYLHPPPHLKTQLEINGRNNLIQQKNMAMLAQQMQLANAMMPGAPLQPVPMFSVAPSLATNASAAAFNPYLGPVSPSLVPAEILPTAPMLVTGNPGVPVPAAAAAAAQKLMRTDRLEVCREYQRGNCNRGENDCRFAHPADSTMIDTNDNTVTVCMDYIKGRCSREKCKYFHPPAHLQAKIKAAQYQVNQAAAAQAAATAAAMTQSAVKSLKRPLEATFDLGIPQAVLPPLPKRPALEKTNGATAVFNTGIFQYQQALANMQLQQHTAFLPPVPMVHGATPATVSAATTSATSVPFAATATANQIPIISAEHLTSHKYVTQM
From the text: NIH Chemical Genomics Center [NCGC] NIH Molecular Libraries Probe Production Centers Network [MLPCN] MLPCN Grant: R03 MH087421-01 Assay Submitter (PI): Charles Thornton NCGC Assay Overview: Expanded CTG repeats in the 3' untranslated region of the DM protein kinase (DMPK) gene causes type I myotonic dystrophy (DM1). DM1 is a multi-systemic disease with a prevalence of 1/7000. Clinical features include myotonia, progressive muscle weakness and wasting, cardiac arrhythmia, insulin resistance, hypersomnolence, cataracts, and other symptoms. The pathogenic effect of expanded CTG repeats stems from deleterious effects of the mutant transcript. CUGexp mRNA accumulates in nuclear foci and sequesters proteins of the muscleblind family, of which MBNL1 is the most common family member in skeletal muscles. The binding interaction between MBNL1 and CUGexp tracts leads to deregulation of alternative splicing and is therefore a key molecular step in the pathogenesis of DM1. To target this binding interaction, we optimized a protein-RNA binding assay in 1536-well format for identification of small molecule inhibitors of biotinylated (CUG)12 and his-tagged MBNL1 binding. Protein-RNA complex of MBNL1-His and Biotin-(CUG)12 captures the detection reagents terbium-labeled anti-His antibody and streptavidin conjugated XL665. This brings the terbium label within close proximity to XL665 to allow time-resolved fluorescence resonance energy transfer (TR-FRET). Inhibitors of MBNL1-(CUG)12 binding will disrupt TR-FRET.
NCGC Assay Protocol Summary: This is a TR-FRET binding assay with MBNL1-His and Biotin-(CUG)12 RNA. The assay uses a ratiometric measurement. In the presence of MBNL1-(CUG)12 complex, the excitation energy is transferred to the XL665 acceptor label, causing emission at 665nm, while the 545nm donor signal […]. Data were normalized to the controls for basal activity (buffer only) and 100% activity (with MBNL1-(CUG)12). […] The final titration was 92 nM to 58 uM. (3) Add 1 ul of terbium labeled anti-His antibody (0.055 ng/ul final concentration) (4) Add 1 ul of streptavidin-XL665 (5 nM final concentration) (5) Incubate 60 min at room temperature (6) Detect the assay plate in a EnVision plate reader (PerkinElmer) with Ex=340 nm, Em1=665 nm and Em2=545 nm. Keywords: mytonic dystrophy type I, DM1, muscleblind like 1, MBNL1, CUG expansion, protein-RNA binding inhibitor, high throughput screening, MLSMR, MLSCN, NIH Roadmap, qHTS and NCGC
% is set by controls: 0 for no effect and ±100 for the full control effect; potency is the fitted concentration of half-maximal effect; tags give direction and shape of the fitted curve or compound fluorescence and quenching.

Compound	Potency	activity change, negative = inhibition
CCOc1cc(C)cc2oc(=O)c3c(c12)CCCC3	inconclusive: 39.8 µM [fluorescent, side channel, single point]	–
C=CCn1c(O)c(/C=N/NC(=O)c2ccncc2)c(=O)[nH]c1=O	inconclusive: 39.8 µM [quencher, side channel, single point]	–
CCN(c1ccc(C(O)(C(=O)OC)C(F)(F)F)cc1)S(=O)(=O)c1ccccc1 (configuration not stated)	–	inactive: -6.04%
Cn1c(O)c(N=Nc2cccc(S(=O)(=O)N3CCOCC3)c2)c(=O)n(C)c1=O	inconclusive: 3.55 µM [quencher, side channel, full curve]	–
O=C(c1ccco1)c1cn(Cc2ccc(Cl)cc2)c2ccccc12	–	inactive: 8.14%
O=C(N/N=C/c1c(O)n(CCc2ccc(F)cc2)c(=O)[nH]c1=O)c1ccncc1	inconclusive: 25.1 µM [quencher, side channel, partial curve]	–
O=[N+]([O-])c1ccc(-c2ccccc2)c([As](=O)(O)O)c1	inconclusive: 15.8 µM [quencher, side channel, partial curve]	–
COc1cc(C=C2C(=O)NC(=O)NC2=O)ccc1OS(=O)(=O)c1ccccc1[N+](=O)[O-]	inconclusive: 22.4 µM [quencher, side channel, partial curve]	–
O=[N+]([O-])c1ccc(NC2CCCC2)c2ccncc12	inconclusive: 5.01 µM [quencher, side channel, partial curve]	–
Nc1cc(Cl)c2nonc2c1[N+](=O)[O-]	inconclusive: 1.78 µM [quencher, partial curve]	–
CN1C(=O)C(=Cc2ccc(N(C)C)c([N+](=O)[O-])c2)C(=O)N(C)C1=O	inconclusive: 14.1 µM [quencher, side channel, partial curve]	–
CN1CCc2nc3sc(C#N)c(N)c3c(-c3cccs3)c2C1	inconclusive: 12.6 µM [quencher, side channel, partial curve]	–
O=c1[nH]c(=S)[nH]c(O)c1N=Nc1ccc(S(=O)(=O)N2CCc3ccccc32)cc1	inconclusive: 10 µM [quencher, side channel, partial curve]	–
COc1ccc(O)c2c(=O)c3c(OC)cc4c(c3oc12)C1C=COC1O4 (configuration not stated)	–	inactive: -8.36%
CCOC(=O)CNc1ccc(C(=O)OCC)cc1[N+](=O)[O-]	inconclusive: 2.51 µM [quencher, side channel, full curve]	–
Cc1cccc(N2C(=O)/C(=C/c3ccc(N4CCN(C)CC4)o3)C(=O)NC2=S)c1C	inconclusive: 3.98 µM [quencher, side channel, single point]	–
CC[n+]1c(/C=C/N(C)c2ccccc2)sc2ccc(Cl)cc21	inconclusive: 14.1 µM [quencher, side channel, partial curve]	–
CC(Cc1ccccc1)NC(=O)/C=C/c1ccc(Cl)cc1 (configuration not stated)	inconclusive: 0.316 µM [fluorescent, side channel, partial curve]	–
O=C(O)c1cccc(N=Nc2c(O)[nH]c(=O)[nH]c2=O)c1	inconclusive: 10 µM [quencher, side channel, partial curve]	–

Compound	Potency	activity change, negative = inhibition
CCC1(OC(=O)CN)C(=O)OCc2c1cc1n(c2=O)Cc2cc3ccccc3nc2-1 (configuration not stated)	inconclusive: 11.2 µM [quencher, side channel, partial curve]	–
CCOP(=O)(CC(C(C)=O)C(O)c1ccccc1)OCC (configuration not stated)	inconclusive: 79.4 µM [inhibitor, partial curve]	–
Nc1ccccc1Nc1ccc([N+](=O)[O-])cc1[N+](=O)[O-]	inconclusive: 2.51 µM [quencher, side channel, partial curve]	–
COc1ccc(-n2c(/C=C/c3ccc(O)c(O)c3)nc3ccccc3c2=O)cc1	inconclusive: 31.6 µM [quencher, side channel, single point]	–
CC(=O)N1CCN(c2ccc([N+](=O)[O-])cc2C=C2C(=O)NC(=O)NC2=O)CC1	inconclusive: 7.08 µM [quencher, side channel, partial curve]	–
COc1cc2c(cc1O)CC[n+]1cc3c(OC)c(OC)ccc3cc1-2	inconclusive: 15.8 µM [quencher, side channel, partial curve]	–
COc1ccc(NC(=O)c2cn(CCC#N)nc2-c2cccc([N+](=O)[O-])c2)cc1	inconclusive: 17.8 µM [quencher, side channel, partial curve]	–
CC(=O)c1ccc(-c2ccc(Cn3c(C)nc4cc(N)c(C)nc43)cc2)cc1	inconclusive: 15.8 µM [quencher, side channel, partial curve]	–
Cc1ccc(-n2c(O)c(/C=N/NC(=O)c3ccncc3)c(=O)[nH]c2=O)cc1	inconclusive: 22.4 µM [quencher, side channel, single point]	–
O=C(CNC(=O)c1cccs1)OCC(=O)c1ccc([N+](=O)[O-])cc1	inconclusive: 7.94 µM [quencher, side channel, partial curve]	–
COc1ccc(NC(=O)c2cc([N+](=O)[O-])ccc2N2CCNCC2)cc1	inconclusive: 14.1 µM [quencher, side channel, partial curve, poor fit]	–
CCOc1cc(/C=C2\C(=O)NC(=O)N(C)C2=O)cc([N+](=O)[O-])c1O	inconclusive: 17.8 µM [quencher, side channel, single point]	–
O=C(Nc1ccccc1)c1cc([N+](=O)[O-])ccc1N1CCNCC1	inconclusive: 14.1 µM [quencher, side channel, partial curve]	–
Cc1cc(OCc2ccc([N+](=O)[O-])cc2)c2c3c(c(=O)oc2c1)CCCC3	–	inactive: -3.44%
CC1=CC(=Cc2sc3ccccc3[n+]2C)C=C(C)O1	inconclusive: 12.6 µM [quencher, side channel, partial curve]	–
NCC(CC(=O)O)c1ccc(Cl)cc1 (configuration not stated)	–	inactive: -9.07%
N=C1c2ccccc2CN1NC(=O)c1ccccc1	inconclusive: 10 µM [fluorescent, side channel, partial curve]	–
Cc1ccc(-n2c(O)c(/C=N/NC(=O)c3ccncc3)c(=O)[nH]c2=O)cc1C	inconclusive: 31.6 µM [quencher, side channel, partial curve]	–
Cc1nc2ccccc2c(=O)n1-c1ccc([N+](=O)[O-])cc1	inconclusive: 14.1 µM [quencher, side channel, partial curve]	–

Compound	Potency	activity change, negative = inhibition
CCN1C(=O)/C(=C\c2ccc([N+](=O)[O-])s2)C(=O)NC1=S	inconclusive: 17.8 µM [quencher, side channel, partial curve]	–
N#CC(C#N)=Cc1ccc(-c2ccccc2)o1	inconclusive: 39.8 µM [quencher, side channel, single point]	–
CC1(C)OC(c2ccccc2)=C/C(=C/C=C2C(=O)NC(=O)NC2=O)O1	inconclusive: 8.91 µM [quencher, side channel, partial curve]	–
Cc1ccsc1C(=O)C1CCCN(Cc2cccc(-n3cccn3)c2)C1 (configuration not stated)	–	inactive: 2.6%
CN1CCCC(C(O)(c2ccccc2)c2ccccc2)C1 (configuration not stated)	inconclusive: 7.08 µM [quencher, side channel, single point]	–
CC(NC(C)(C)C)C(=O)c1cccc(Cl)c1 (configuration not stated)	inconclusive: 63.1 µM [inhibitor, partial curve, poor fit]	–
CN1CCN(c2ccc([N+](=O)[O-])c(N/N=C3\CN4CCC3CC4)c2)CC1	inconclusive: 14.1 µM [quencher, side channel, partial curve]	–
COc1ccc(-n2c(=S)[nH]c3c(sc(=S)n3-c3ccccc3)c2=O)c(OC)c1	inconclusive: 31.6 µM [quencher, side channel, single point]	–
CCn1c(C)cc(/C=C2\C(=O)NC(=O)N(c3ccccc3C)C2=O)c1C	inconclusive: 28.2 µM [quencher, side channel, partial curve]	–
CCOC(=O)CSc1ccc(C(=O)N2CCC3(CC2)OCCO3)cc1[N+](=O)[O-]	inconclusive: 12.6 µM [quencher, side channel, partial curve]	–
CCCNc1oc(-c2cccc3ccccc23)nc1C#N	–	inactive: 8.11%
O=C(C[N+]12CCC(CC1)C(CO)C2)c1ccc([N+](=O)[O-])cc1 (configuration not stated)	inconclusive: 7.94 µM [quencher, side channel, partial curve]	–
CN(C)CC1CSCCC1(O)c1cccc(Cl)c1 (configuration not stated)	inconclusive: 50.1 µM [inhibitor, single point]	–
O=C(Cc1cc(=O)[nH][nH]1)N/N=C/c1cccc2ccccc12	inconclusive: 25.1 µM [quencher, side channel, partial curve]	–
CC1=C(C(=O)O)N2C(=O)C(NC(=O)c3nn(C)cc3[N+](=O)[O-])C2SC1 (configuration not stated)	inconclusive: 20 µM [quencher, side channel, partial curve]	–
Cc1c(-c2cccc(Cl)c2)nc2ccccc2c1C(=O)N1CCC2(CC1)OCCO2	–	inactive: -3.16%
CCOc1ccc([N+](=O)[O-])cc1CNCCc1ccccc1	inconclusive: 20 µM [quencher, side channel, partial curve]	–
COc1ccccc1N=Nc1c(O)[nH]c(=S)[nH]c1=O	inconclusive: 11.2 µM [quencher, side channel, partial curve]	–
O=C1NC(=S)NC(=O)C1C/C=C/c1ccccc1	–	inactive: -0.03%
